In the supplement of paper PMC3334620:
The full ranking holds about 33,000 sequences; the median of “E-score (-0.5 to 0.5)” is about -0.056, and the highest 2% start at about 0.38. This is one part of the list.

Target: Stb4 (UniProt P50104)
Assay: PBM E-score (8-mer binding enrichment) (E-score (-0.5 to 0.5)); higher = stronger / more preferred TF binding; most listed sequences are background and not binding sites
Details: protein concentration: 200 nM; construct: GST-DNA-binding domain
Outline: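 Yeast transcription factors, full-length or as DNA-binding domains, were expressed with a GST tag using PURExpress in vitro transcription/translation. At about 100-200 nM they were applied to universal all-10-mer Agilent arrays, double-stranded by primer extension on fresh or once-stripped slides. Fluorescent anti-GST detected bound protein, and masliner normalised the scans. E-scores for ungapped eight-base words, pooled with reverse complements, came from the Universal PBM Analysis Suite.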

Sequence	PBM E-score
ATGAACAC	-0.0474
ACGAAAAT	-0.199
GCAAAGAA	0.0392
AAAAATTT	0.0986
AACCCGCA	0.156
AGGCTTGG	-0.0137
AGAAAGTC	0.0306
ATAAATCG	0.00309
GAGTCGAC	-0.126
ACATAGTC	-0.1
ACTCTCAG	-0.279
GACAAGCC	-0.0179
CGTCGACA	-0.0762
ACCCTGCT	-0.149
CATACAAG	-0.0716
GGTCAGAA	0.00512
CCGGAAAC	0.394
GGAATTAA	0.194
CCATGAGC	-0.171
ATGTGTTG	-0.137
CTCCGAAC	0.427
ATAGCGAG	-0.123
GACAGGGC	-0.122
GACTGGGA	-0.0314
ACTCAGCA	-0.084

Sequence	PBM E-score
AGGTCAAA	-0.231
CTCGTCGC	-0.116
CTCCCAAC	-0.0824
ACCTGTGC	-0.211
GGTTGCTA	0.0181
CGAGTGAG	0.157
GTCTTCGA	-0.232
AAGAGTGA	-0.237
TCTCCAGA	-0.0837
CTACCAAA	0.0172
AGAACACT	0.0948
GCGTCATA	-0.0552
GATTGCGC	-0.00733
TCAGTCAA	-0.147
CGCGGAAC	0.395
ACAGCCAA	-0.135
GGCGACAA	-0.0824
CAGGGCGC	-0.175
AGTGTAAG	-0.191
CCCTAAGG	-0.232
ACAAGGGC	-0.0269
AGCGGAGA	0.0304
ACTATATC	-0.137
GTCGGATA	0.463
ATGGAGAG	-0.252

Sequence	PBM E-score
CGAGGCCA	0.0718
CATAGCTA	-0.0675
AATCTCCT	-0.0714
AGGCGACG	-0.0581
GGGGACCC	-0.0645
CCCGTGAC	0.211
GTACAAAA	-0.165
TACCCCGA	0.342
ACTCAAGG	-0.0695
CAACGTTC	0.0557
ATTTCACC	-0.0142
AGGTTGGA	0.0581
CTTTCCTA	-0.134
ATCGTGTG	0.00933
CTGTTGAA	-0.00908
ATTTTGGC	0.0403
ACAGGCCA	-0.0282
ACTGGTTA	-0.0984
ACTTTAAC	-0.0859
CAGTTGTA	-0.156
CGTCAATC	-0.141
ATATCCCA	0.235
AGAAGTAG	-0.314
CTGGTGTA	-0.169
CCATCTCG	0.228

Sequence	PBM E-score
ACGATTGG	-0.176
ATGCCTTC	-0.0568
AGGGAGCG	-0.163
AGCGGTTA	0.0198
ATATTCAT	-0.224
CATACCGG	0.146
CCGTTGAC	0.00559
ACCGTCTC	-0.0425
ACACCTAC	-0.0226
ATCAAGGA	-0.368
ACCGACCA	0.141
AAAGATCA	-0.118
ATGTAAAA	-0.18
CCTTTCCC	0.222
AACCATCA	0.054
ATTCATAC	0.0839
CTAAAAAA	0.124
ATGCAAAT	-0.115
ATGAGTGC	-0.0135
GATTTTAA	0.152
ACAACAGG	-0.116
AAAATCAG	-0.00881
ATGGATTG	-0.00783
CTCTTATC	-0.024
CTTATCAA	-0.188

Sequence	PBM E-score
CAAGGTAA	-0.0482
AGTACTAC	-0.177
GCTCTACA	-0.12
GGCTGGCA	-0.209
AGAGAAGC	-0.039
AAAGTTCG	0.209
CGAACCAA	0.0796
GGACTTAA	0.086
CCCGCGAG	0.141
AAAATCAC	-0.0706
AGTCAAGA	-0.145
AAGGTGAA	0.00295
GTAGAAAC	0.0749
AAAATTTT	0.231
ATTTGCTA	-0.168
AACCGTAG	-0.0947
CGCTCAAG	-0.152
TCCCAACA	-0.0766
CCTCAACA	-0.119
ACCCAGTC	-0.0444
CGAAGCAA	-0.00587
CAGTTCCA	-0.0647
CACACTGC	-0.113
AGTCCTAT	-0.12
CGTCCCTC	-0.128

Sequence	PBM E-score
CCGTTTCC	0.22
AAGTGGCT	-0.0265
GCAGACTA	-0.242
GGGATGGA	0.0991
CCGAAAGC	0.377
TAACGTGA	-0.101
CATGTTCG	0.0927
CGAAAAAA	0.173
ACGCTGCG	-0.168
CTTACCTC	-0.00464
ATCCCAGC	-0.0722
TCAGAGGA	-0.183
CGCTGCAG	0.0249
AAGTAGTC	-0.0513
CAAGGCCG	0.0789
GATGTTAC	0.0225
GGCATAGA	0.0757
AGCCACTC	-0.119
CTTCACGC	0.0341
ATCCACTA	-0.0568
CTCCCGAA	0.43
CACAGTGC	0.0114
AACTCAGA	-0.304
AAAATGCA	-0.101
CCTTTCCG	0.381

Sequence	PBM E-score
GCATATCA	0.0661
GCCTTTCC	0.171
GGAAACCC	0.198
GCGTTAAA	-0.0629
AAACCAAT	0.113
CAGCTAAA	-0.232
CAACATGA	-0.00103
AGCAGTAT	-0.12
GGGGAGAC	0.00994
AACGTATT	-0.0995
ATGTGCCA	-0.134
AATTACAG	0.0676
CCTATCCC	0.176
CTTAAAGC	-0.0959
CCACTGGA	-0.0604
ATCCTGAG	-0.0941
AACGTGAT	-0.127
CCGATTGA	0.214
CCATGGCG	0.0404
CCAAAATC	-0.027
GCGCCACA	-0.189
AAATTTTA	-0.0853
